Measurements as given in paper PMC2884952.
No constants are given. Whether binding was seen depends on the method and setting. For some assays here: Binding seen in cells or lysates may run through a third protein. Some entries that bind do so weakly or less than the wild type.

Columns and labels:
[1] = biological target: PIV5/V (yeast two-hybrid fusion) (parainfluenza virus 5) (UniProt P11207); test: two-hybrid; yeast two-hybrid assays, data not shown; bait and prey not told
[2] = biological target: GST-PIV5/V (V protein of parainfluenza virus 5, GST-tagged) (parainfluenza virus 5) (UniProt P11207); test: pull-down; only the target purified

“DDB1 (yeast two-hybrid fusion) (from UniProt Q16531 1-1140)” was tested, and the binding [1] was “binds”.
For “STAT2 (yeast two-hybrid fusion) (from UniProt P52630 1-851)”, the binding [1] was “binds”.
With “human DDB1 (baculovirus-expressed) (from UniProt Q16531 1-1140)” the binding [2] was “binds”.
In the case of “human STAT1 (baculovirus-expressed) (from UniProt P42224 1-750)”, the binding [2] is reported as “no binding”.
In the case of “human STAT2 (baculovirus-expressed) (from UniProt P52630 1-851)”, the binding [2] is reported as “binds”.
